Screen size: about 310,000 compounds; about 2,200 (0.71%) showed an effect of 50% or more. Effects have a minus sign here. This is one part of the list.
molecular target: human ether-à-go-go-related gene (hERG) potassium channel (human, UniProt Q12809); assay: primary screen, population patch clamp on CHO cells stably expressing hERG
Sequence (Q12809 whole entry, looked up): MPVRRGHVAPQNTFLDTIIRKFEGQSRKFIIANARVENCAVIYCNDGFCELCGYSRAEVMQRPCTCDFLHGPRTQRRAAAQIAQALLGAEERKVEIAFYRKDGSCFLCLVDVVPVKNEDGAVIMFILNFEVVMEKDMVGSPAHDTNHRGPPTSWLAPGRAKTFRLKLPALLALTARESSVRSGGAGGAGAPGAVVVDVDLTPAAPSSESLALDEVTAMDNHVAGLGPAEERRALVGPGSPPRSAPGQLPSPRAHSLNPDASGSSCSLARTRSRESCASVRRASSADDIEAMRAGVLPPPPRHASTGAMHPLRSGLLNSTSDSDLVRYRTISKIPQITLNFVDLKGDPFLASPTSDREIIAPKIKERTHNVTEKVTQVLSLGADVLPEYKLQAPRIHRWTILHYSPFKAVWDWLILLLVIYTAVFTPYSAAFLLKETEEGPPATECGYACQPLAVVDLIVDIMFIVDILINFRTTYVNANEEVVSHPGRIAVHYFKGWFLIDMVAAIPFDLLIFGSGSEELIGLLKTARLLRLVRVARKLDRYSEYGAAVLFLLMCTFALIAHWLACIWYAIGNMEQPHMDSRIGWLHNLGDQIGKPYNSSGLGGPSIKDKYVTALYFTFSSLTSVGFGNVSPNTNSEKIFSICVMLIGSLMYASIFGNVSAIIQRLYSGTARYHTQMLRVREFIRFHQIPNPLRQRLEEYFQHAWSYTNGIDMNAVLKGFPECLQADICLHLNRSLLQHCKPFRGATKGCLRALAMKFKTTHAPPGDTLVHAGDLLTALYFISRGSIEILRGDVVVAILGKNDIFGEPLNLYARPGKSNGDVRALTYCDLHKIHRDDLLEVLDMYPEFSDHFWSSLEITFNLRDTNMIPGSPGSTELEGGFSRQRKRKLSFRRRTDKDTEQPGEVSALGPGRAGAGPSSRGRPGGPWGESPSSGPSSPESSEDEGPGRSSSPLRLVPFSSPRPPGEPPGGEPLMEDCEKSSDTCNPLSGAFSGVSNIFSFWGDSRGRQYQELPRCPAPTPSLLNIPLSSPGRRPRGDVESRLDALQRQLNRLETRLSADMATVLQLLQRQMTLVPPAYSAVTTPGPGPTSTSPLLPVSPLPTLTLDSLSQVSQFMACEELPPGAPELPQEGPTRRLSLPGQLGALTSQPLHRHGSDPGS

SMILES | hERG current change (%, negative = inhibition) at 1uM [%]
O=C(Nc1ccccc1)Nc1nnc(COc2ccccc2F)s1 | 9.02
CC(OC(=O)c1ncc(Cl)c(Cl)c1Cl)C(=O)NC1CCCCC1C (stereo not shown) | 17.3
CC1(C)CC(C(=O)Nc2nccs2)CCO1 (stereo not shown) | 1.96
CSCC(C)N1CCC(n2nccc2NC(=O)CCOc2ccccc2)CC1 (stereo not shown) | 13.7
COc1ccccc1N1CCN(C(=O)c2c(C)cc(=O)oc2C)CC1 | 17.5
Cc1cc(C)c(C(=O)CSc2nnc(C)s2)c(C)c1 | 26.7
CCOc1ccc(OCC)c(NC(=O)CSc2nnc(-c3cccnc3)o2)c1 | 6.71
CCOC(=O)C(=O)Nc1nnc(CCc2ccccc2)s1 | 11.4
O=C(O)CP(=O)(c1ccccc1)c1ccccc1 | 16
O=C1NCC(c2ccccc2)C1C(=O)N/N=C/c1ccc(Cl)s1 (stereo not shown) | 8.95
O=C(CN1C(=O)NC2(CCCC2)C1=O)NCC1CCCO1 (stereo not shown) | 9.93
COc1ccccc1CNC(=O)CCN1C(=O)COc2ccc(C)cc21 | 16
Cc1ccc(S(=O)(=O)Nc2ccc(SC(F)F)cc2)c(C)c1 | 13
O=C(c1ccc(F)cc1)N1CCC(C(=O)N2CCN(S(=O)(=O)c3ccccc3Br)CC2)CC1 | 4.59
COc1cc2c(cc1OC)C(C)N(C(=O)C1=NN(c3cccc(C)c3)C(=O)CC1)CC2 (stereo not shown) | 10.3
COc1ccc(CCNC(=O)Nc2cccc([N+](=O)[O-])c2)cc1OC | 5.22
Cc1cc(C)c(S(C)(=O)=O)c(NN)n1 | 14
COC(=O)c1scc(C)c1NC(=O)c1ccc(Cl)cc1 | 5.49
O=C(COc1ccc(Cl)cc1Cl)N/N=C/c1ccc(OC2OC(CO)C(O)C(O)C2O)cc1 (stereo not shown) | -0.123
COc1ccc(NC(=O)O/N=C/c2ccc(N(C)C)cc2)cc1 | 9.08
Cc1cccc(C#Cc2ccccc2)n1.Cl | 4.55
Cc1c(C(=O)NCc2cccnc2)oc2ccc(S(=O)(=O)N3CCCC(C)C3)cc12 (stereo not shown) | 6.31

SMILES | hERG current change (%, negative = inhibition) at 1uM [%]
COCCSc1ccccc1C(=O)NCc1cccnc1 | 10.6
Cc1cc(C)n(CCO)c(=O)n1.Cl | 25.3
CC(C)c1ccc(NC(=O)CSc2nc(=O)[nH]c3c2CCCC3)cc1 | 4.46
Cc1cccc(NC(=O)c2ccc(NCC3CCCO3)c([N+](=O)[O-])c2)c1 (stereo not shown) | 5.6
O=C(C1CCCN(S(=O)(=O)c2cccc3nsnc23)C1)N1CCc2ccccc21 (stereo not shown) | 0.421
COc1cc(OC)c([N+](=O)[O-])cc1/C=N/NC(=O)c1ccncc1 | 0.0289
COc1cc(O)c(C(CCN2CCOCC2)c2ccc(N(C)C)cc2)c(OC)c1 (stereo not shown) | 6.59
O=C(c1cc(Cl)ccc1O)N1CCN(S(=O)(=O)c2cccs2)CC1 | 18.9
COc1ccccc1C(=O)C1CCCN(Cc2cccc(OCCO)c2)C1 (stereo not shown) | 2.04
CC(C)N(CCCNC(=O)C1CCC(CNS(=O)(=O)c2ccccc2)CC1)Cc1ccccc1 (stereo not shown) | 3.8
COc1ccc(OC)c(NC(=O)c2cccnc2Sc2cc(C)ccc2C)c1 | 6.65
Cc1c(-c2ccccc2)oc2c(C(=O)N3CCN(c4ccc([N+](=O)[O-])cc4)CC3)cccc2c1=O | -20.1
CCCC(c1nnnn1CS(=O)(=O)c1ccc(C)cc1)N1CCN(c2ccc(F)cc2)CC1 (stereo not shown) | 2.29
Cc1ccccc1N1CCN(C2CCCN(C(=O)Cc3c(C)noc3C)C2)CC1 (stereo not shown) | 3.96
CCOc1ccc(/C=C/C(=O)OCC(=O)Nc2cccc(S(=O)(=O)N3CCCC3)c2)cc1 | -3.07
CCOC(=O)C1=C(c2cccc(F)c2)NC(=S)NC1C (stereo not shown) | -8.98
CCOC(=O)c1sc2nc(NC(=O)COc3ccccc3)sc2c1C | 18.4
Cc1onc(-c2c(Cl)cccc2Cl)c1CO/N=C(\C#N)c1c(Cl)cccc1Cl | 11.4
O=C(NCc1cccnc1)Nc1ccc(Cl)cc1 | -18.3
Cn1cc(CC(=O)NCCN2CCOCC2)c2ccccc21 | 11.7
CC(C)Cn1c(CN2CCN(c3ccccc3F)CC2)nc2c1c(=O)[nH]c(=O)n2C | 10.1
COc1cc(NC(=O)CCc2nnc3ccc(N4CCC(C)CC4)nn23)cc(OC)c1 | 16.4

SMILES | hERG current change (%, negative = inhibition) at 1uM [%]
CNC(=S)Nc1ccc(C23CC4CC(CC(C4)C2)C3)cc1 | 19.9
CCOC(=O)c1ccc(NC(=O)Cn2nnc(-c3ccc(F)cc3)n2)cc1 | 7.91
COc1cccc(CNC(=O)C2CCCN(S(=O)(=O)N3CC(C)CC(C)C3)C2)c1 (stereo not shown) | 7.38
O=C(CCC(=O)c1ccc(Oc2ccccc2)cc1)Nc1cccc(Cl)c1 | 6.65
O=C(NCCC(=O)N1CCN(S(=O)(=O)c2ccccc2)CC1)c1ccc(Br)cc1 | 14.5
N#CCCNS(=O)(=O)c1ccc(C(=O)OCC2CCCCC2)cc1 | 15.9
CCCCN(CCCC)C(=O)C1(P(=O)(c2ccccc2)c2ccccc2)CCC1 | 7.73
CCN1CCCC1CNC(=O)CN(C)S(=O)(=O)c1ccc(Cl)cc1 (stereo not shown) | -0.769
Cc1ccc(OCC(=O)Oc2ccc(C(C)C)cc2)cc1 | 13.6
Cc1ccc2nc(-c3ccc(NS(=O)(=O)c4ccc(F)cc4)cc3)sc2c1 | 4.76
CC1CC(C)CN(C(=O)COC(=O)c2ccc([N+](=O)[O-])o2)C1 (stereo not shown) | 3.76
OCCCNc1ncnc2c1cnn2-c1ccc(Cl)cc1 | 20.9
COc1ccc(-n2nnc3c(=O)n(CC(=O)N4CCCC4)cnc32)cc1 | 4.15
COc1cc(C[C@@H]2C(=O)OC[C@H]2Cc2ccc(OC)c(OC)c2)ccc1O | 10.7
CSc1nc(C)c(CCOCc2ccc(F)cc2)c(=O)[nH]1 | 8.26
Cc1ccc2nc(SCC(=O)Nc3cccc(S(=O)(=O)N(C)C)c3)[nH]c2c1 | 7.67
CSc1nnc(NC(=O)c2nc(S(=O)(=O)Cc3ccc(C)cc3)ncc2Cl)s1 | 19.3
C=CCNC(=S)NNC(=O)c1ccncc1 | 6.98
Cc1cc(Cl)ccc1OCC(=O)OC(C)C(=O)N(C)C (stereo not shown) | 12.7
COCCOC(=O)C1=C(C)NC(C)=C(C(=O)OCCOC)C1/C=C/c1ccccc1OC | 8.08
Cc1cc(C)c2cc(CN(Cc3cccnc3)C(=O)c3ccc(F)cc3)c(Cl)nc2c1 | -26.4
CC12CN(C(=O)c3ccccc3Br)CC(C)(CN(C(=O)c3ccccc3Br)C1)C2=O | 12.3

SMILES | hERG current change (%, negative = inhibition) at 1uM [%]
Cc1ccc(C)c(Nc2nc3ccc(C)cc3n3cnnc23)c1 | 11.2
Cc1ccc(NS(=O)(=O)c2cc([N+](=O)[O-])ccc2NNC(=S)Nc2cc(C)ccc2C)c(C)c1 | -4.13
CC1CC(C)CN(CCOc2cccc(Cl)c2Cl)C1.O=C(O)C(=O)O (stereo not shown) | 11.4
COc1ccc(OCC(=O)Nc2cc3oc4ccccc4c3cc2OC)cc1 | 17.1
O=C(Nc1ccc2c(c1)OCCO2)c1cc2ccccc2o1 | 12.2
Cc1ccccc1CS(=O)(=O)CCC(=O)NCc1ccccn1 | 18.4
CC(=O)N1CCN(C(=O)c2ccc(Oc3ccccc3)cc2)CC1 | 10.8
O=C(NCc1ccc(F)cc1)C1CCCN(S(=O)(=O)c2cccc3nonc23)C1 (stereo not shown) | 17.9
CCN1CCN(C/C(C)=C/c2ccccc2)CC1 | 11.3
COCCCNC(=S)N1CCN(c2ccc([N+](=O)[O-])cc2)CC1 | -64.8
CCN(Cc1ccccc1)C(=O)C(C)OC(=O)c1cc(S(=O)(=O)Nc2c(C)n(C)n(-c3ccccc3)c2=O)ccc1C (stereo not shown) | -3.23
O=[N+]([O-])c1ccc(-c2cnc(NO)nc2)cc1 | 15.7
CCOC(=O)C1=C(N)Oc2cc(O)ccc2C1c1cccc([N+](=O)[O-])c1 (stereo not shown) | 22
Cc1nn(-c2ccccc2)c(C)c1C(=O)NCc1ccc(S(N)(=O)=O)cc1 | 20.3
CCCCn1c(N)c(N(CCOC)C(=O)CSc2nnc(-c3ccncc3)n2CCC)c(=O)[nH]c1=O | 7.38
Cc1cccc(OCCNC(=O)c2ncn[nH]2)c1 | -7.55
CC(=O)N1N=C(C)CC1c1ccc(OCc2ccccc2)cc1 (stereo not shown) | 5.87
CCCc1ccc(OCC(O)CN2CCN(C(=O)OCC)CC2)cc1.Cl (stereo not shown) | -5.38
Cc1ccc(Cn2cnc3ccccc32)cc1C | 8.15
O=C(Nc1cccc(NC(=O)C2CC3CCCC(C2)C3=O)n1)C1CC2CCCC(C1)C2=O (stereo not shown) | 7.2
Oc1c(C=NCc2ccncc2)sc2ccccc12 | 6.72
COC(=O)c1ccccc1NC(=O)CCCN1C(=O)C(c2ccccc2)Oc2cccnc21 (stereo not shown) | 27.7

— publication PMC4336329 (PLoS ONE, 2015)
